Assay results published in PubChem BioAssay AID493208 (National Center for Advancing Translational Sciences (NCATS), 2011).
Among all 44,000 compounds or so, about 340 (0.77%) were called active. About 5% were inconclusive and are not listed. Calls follow the shape of the dose curve; as a rule, active = well fitted inhibition curve with a large enough effect; inconclusive = small, poorly fitted or top-dose-only effect; inactive = flat fitted curve, though single readings scatter. The list shows a part of the results.

Experiment: Acumen qHTS Assay for Inhibitors of the mTORC1 Signaling Pathway in MEF (Tsc2-/-, p53-/-) Cells: Sytravon;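 also: plate controls were DMSO for no effect and rapamycin for full effect; nearly all actives have a fitted effect of over 50% in size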
Details: phospho-rpS6 immunofluorescence/PI, 24 h; series mostly up to 38.3 µM; activity change, negative = inhibition: at the top concentration
How it was run: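 Compounds act on Tsc2-/-, p53-/- fibroblasts carrying an empty vector for 24 h before fixation and dual staining for phospho-S6 and DNA (propidium iodide). Values are percentages of cells above a rapamycin-defined pS6/PI threshold.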

Compound	activity change, negative = inhibition
Fc1ccc(-c2cc(-c3nc(-c4cccc(Cl)c4)no3)[nH]n2)cc1	inactive: 0.499%
CC1CCC(NC(=O)c2ccc3c(c2)N(Cc2cccc(F)c2)C(=O)c2ccccc2S3)CC1 (stereo unspecified)	inactive: -3.14%
CCc1nnc(SCc2ccc(F)cc2Cl)c2cc3sccc3n12	inactive: 3.56%
Cc1ccc(C)c(NC(=O)C(C)n2c(=O)cc(C(F)(F)F)c3c(C)nn(C)c32)c1 (stereo unspecified)	inactive: -0.342%
CCN1CCN(C(=O)c2ccc3c(c2)N(Cc2cccc(Cl)c2)C(=O)c2ccccc2S3(=O)=O)CC1	inactive: -0.49%
COc1ccccc1CNC(=O)CSc1ncc2c(n1)-c1ccccc1N(Cc1ccc(C)cc1)S2(=O)=O	inactive: 0.889%
COc1ccc(-c2noc(C3CC(=O)N(c4ccc(C)c(F)c4)C3)n2)c(OC)c1 (stereo unspecified)	inactive: 0%
COc1ccc(Cl)cc1C(=O)NCC(c1ccc(N(C)C)cc1)N1CCCC1 (stereo unspecified)	inactive: 0%
Cc1ccc(C)c(NC(=O)Cn2c(=O)n(CCCS(=O)(=O)C3CCCCC3)c(=O)c3ccccc32)c1	inactive: 3.29%
Cc1ccc(NC(=O)C2CCCN(S(=O)(=O)c3ccc4c(c3)CCCC(=O)N4)C2)cc1N(C)C (stereo unspecified)	inactive: -13.1%
O=C(Cn1c(-c2cccs2)cc2cc(Cl)ccc21)N1CCCCC1	inactive: -19.5%
Cc1ccc(-c2ccc(CCC(=O)O)n2-c2ccc(C)c(Cl)c2)cc1	inactive: -13%
CCOc1cc(C(=O)Nc2ccc(-c3nnc4n3CCCCC4)cc2)cc(OCC)c1OCC	inactive: 0.89%
Fc1ccc(-c2nnn3c2nc(NCc2ccccc2)c2ccccc23)cc1	inactive: -5.29%
O=C1CN(C(=O)c2c(F)cccc2Cl)C(c2ccc(F)cc2)c2cc(Br)ccc2N1 (stereo unspecified)	inactive: -0.158%
Cn1c(=O)n(C)c2cc(N3CCOCC3)c(NS(=O)(=O)c3ccc(F)cc3)cc21	inactive: -1.56%
Cc1ccc2c(c1)c1c(c(=O)n(-c3ccccc3)c(=O)n1CC(=O)c1ccc(Cl)cc1)n2C	inactive: -4.49%
CN(C(=O)CSc1nc2ccc(NC(=O)c3cccs3)cc2s1)c1ccccc1	inactive: -1.49%
CCOc1ccc(NC(=O)CSc2nccn2C2CCCC2)cc1	inactive: -3.11%
CCc1ccc(CNC(=O)C2CCN(C(=O)c3ccc(-n4c(C)cc5ccccc54)s3)CC2)cc1	inactive: -10.3%
COc1ccc(-n2c(=O)c3c4c(sc3n(CC(=O)C(C)(C)C)c2=O)CCCC4)c(OC)c1	inactive: 2.61%
COC(=O)c1cccc(CN2C(=O)SC(Nc3ccccc3C)C2=O)c1 (stereo unspecified)	inactive: 0.871%
Cc1ccc(CN2C(=O)CN(C3CCCCCC3)C(=O)C2c2ccc(F)cc2)cc1 (stereo unspecified)	inactive: 2.2%
COc1ccc(C(=O)Nc2nc(-c3nnn(-c4cc(OC)ccc4OC)c3C)ns2)cc1	inactive: -6.65%

Compound	activity change, negative = inhibition
Cc1ccc(OCc2cc(=O)n3c(-c4ccccc4)csc3n2)cc1	inactive: -7.37%
O=C(Cn1nnc(-c2cccc(C(F)(F)F)c2)n1)NCc1ccc(F)cc1	inactive: -6.57%
CCc1ccc(CNC(=O)c2cc3cc4ccc(OC)cc4nc3o2)cc1	inactive: 1.12%
COc1ccc(-c2cc(C(=O)NCc3ccc(C)cc3)c3cc(C(C)C)ccc3n2)cc1	inactive: 2.69%
Cc1ccc(NC(=O)C(=O)NCC(c2ccc3c(c2)OCO3)N2CCN(C)CC2)cc1C (stereo unspecified)	inactive: -8.41%
COc1cc(NC(=O)Nc2c[nH]c(=O)[nH]c2=O)cc(OC)c1OC	inactive: 8.3%
CC(C)CCNC(=O)Cn1cc(S(=O)(=O)Cc2ccc(F)cc2)c2ccccc21	inactive: -4.14%
CCN(CC)S(=O)(=O)c1ccc2c(c1)c(=O)c(C(=O)N1CCN(c3ccccc3OC)CC1)cn2C	inactive: -7.31%
CCCCOc1ccc(S(=O)(=O)n2nc(C)c(S(=O)(=O)N3CCCCCC3)c2C)cc1	inactive: -0.469%
O=C1CCSC2(C(=O)N(Cc3ccccc3)c3ccccc32)N1c1ccccc1 (stereo unspecified)	inactive: -13.3%
O=C(NCCCN1CCN(c2ccccc2F)CC1)c1sc2ncccc2c1-n1cccc1	inactive: 0.821%
COc1cccc2cc(-c3nc4ccc(C)cc4[nH]3)c(=O)oc12	inactive: 6.02%
CCCC(=O)OC1=C(C(C)=O)N(Cc2ccccc2)S(=O)(=O)c2ccccc21	inactive: -0.476%
Cc1cc(S(=O)(=O)NCCc2csc(-c3cccc(F)c3)n2)ccc1F	inactive: -0.892%
CCN(Cc1ccccc1)S(=O)(=O)c1ccc(N2CCCCS2(=O)=O)cc1	inactive: 0.633%
CCc1ccc2nc(N3CCC(C(=O)NCCC(C)C)CC3)sc2c1	inactive: 0%
CCCCNC(=O)c1cnc2c(-c3ccc(OCC)c(OCC)c3)c(C)nn2c1-c1ccccc1	inactive: -5.43%
O=C(CCS(=O)(=O)c1cc2c(cc1Cl)NC(=O)CO2)NCc1ccccc1	inactive: 0%
CCc1cccc(C)c1NC(=O)c1cc2ccccc2o1	inactive: 7.83%
Cn1cc(S(=O)(=O)c2ccccc2)c(=O)c2cc(F)c(N3CCCC3)cc21	inactive: -0.0236%
O=C(NCc1ccccc1)c1ccc(CSc2nc3cccnc3n2Cc2ccccc2)cc1	inactive: -15.7%
COc1ccc(NC(=O)Cn2cc(S(=O)(=O)c3ccccc3)c(=O)c3cc(C)ccc32)cc1Cl	inactive: 2.25%
COc1cccc(N2CCN(C(=O)c3ccc4c(Cl)c5c(nc4c3)CCCC5)CC2)c1	inactive: -14.9%
CCc1ccc(NC(=O)CSC2=Nc3ccccc3C3=NC(CC(=O)NCc4cccs4)C(=O)N23)cc1 (stereo unspecified)	inactive: 0.298%

Compound	activity change, negative = inhibition
CCC(Cn1nnc2ccccc2c1=O)NC(=O)Nc1cc(OC)cc(OC)c1 (stereo unspecified)	inactive: -6.01%
Cc1cc2c(cc3c(SCc4cccc(Cl)c4)nnc(C)n32)o1	inactive: -4.85%
CCC(=O)N1CCc2cc(Br)cc(S(=O)(=O)N3CCC(C(=O)Nc4cccc(C)c4)CC3)c21	inactive: 2.73%
CNC(=O)c1cccc(-n2c(C)nc3cccnc32)c1C	inactive: 0.973%
O=c1c2cccnc2n(Cc2ccc(Cl)cc2)c(=O)n1Cc1ccc(F)cc1	inactive: -2.38%
CCCSc1nnc(NC(=O)Cc2coc3cc(C)ccc23)s1	inactive: -2.64%
CC(=O)c1ccc(NC(=O)CSc2nc3c(=O)n(C)c(=O)n(C)c3n2C)cc1	inactive: -0.426%
CC(=O)Nc1ccc(S(=O)(=O)N2CCN(c3ccc(C)c(C)c3)CC2)cc1	inactive: -16.2%
Cc1cccc(NC(=O)Nc2ccc(C)c(C)c2)n1	inactive: 1.79%
Cc1cc(OCC(=O)Nc2ccc(C(=O)OC3CCCCC3)cc2)ccc1Cl	inactive: 6.15%
CNC(=O)C1CCC(Cn2c(=O)c3sccc3n(CC(=O)Nc3cc(C)cc(C)c3)c2=O)CC1 (stereo unspecified)	inactive: -6.93%
COc1cccc(NC(=O)Cn2nc(-c3ccncc3)ccc2=O)c1	inactive: -10.6%
CCOc1ccc(NC(=O)C(=O)NCCc2sc(-c3ccc(C)cc3)nc2C)cc1	inactive: -1.12%
CC(C)c1ccc(C(=O)CC2(O)C(=O)N(CCc3ccccc3)c3ccc(Cl)cc32)cc1 (stereo unspecified)	inactive: -25.8%
O=C(c1c[nH]c2ccc(S(=O)(=O)Nc3ccccc3F)cc2c1=O)N1CCCCCC1	inactive: -9.2%
COc1ccc(OC)c(NC(=O)C2CCN(S(=O)(=O)c3c(C)noc3/C=C/c3ccc(C)cc3)CC2)c1	inactive: 2.23%
CC1CCCCN1CCCNC(=O)c1sc2ncccc2c1-n1cccc1 (stereo unspecified)	inactive: -0.0938%
CCC(C)n1c(=N)c(C(=O)NCc2ccco2)cc2c(=O)n3cc(C)ccc3nc21 (stereo unspecified)	inactive: 12.3%
Cc1cccc(Cn2c(CN3CCC(C(=O)NCc4ccccc4Cl)CC3)cc3ccccc32)c1	inactive: 0%
Cc1ccc(C(=O)Nc2cc(-c3nc4cc(Cl)ccc4o3)ccc2C)c(C)c1	inactive: 1.22%
O=S(=O)(NCc1csc(-c2ccccc2)n1)c1ccccc1	inactive: -2.3%
COc1ccc(Cn2c(CNS(=O)(=O)c3ccc(Cl)s3)nc3cccnc32)cc1	inactive: -11.1%
COC(=O)c1sc(N2C(=O)c3oc4cc(C)c(C)cc4c(=O)c3C2c2ccccc2F)nc1C (stereo unspecified)	inactive: 5.33%
CCCN1C(=O)c2[nH]nc(-c3ccc(OC)cc3)c2C1c1ccccn1 (stereo unspecified)	inactive: -5.63%

Compound	activity change, negative = inhibition
COc1ccc(CN2CCc3nc(N4CCN(c5ccc(F)cc5)CC4)ncc3C2)c(OC)c1OC	inactive: -1.6%
Cc1ccc(NC(=O)c2cnc3cc(C)ccn3c2=O)c(C)c1	inactive: 1.48%
COc1ccc(-c2cc(C(=O)Nc3cc(C)nn3-c3ccccc3)no2)cc1OC	inactive: -19%
CCCCSc1nc(-c2cccc(OC)c2)nc2c1Cc1c(CO)cnc(C)c1O2	inactive: 4.47%
CC1CCCCN1C(=O)CN1CCSc2ccccc21 (stereo unspecified)	inactive: 0.178%
CCC(=O)Nc1ccc(CC)cc1-c1nc2ccccc2n(CC(=O)c2ccc(OC)cc2)c1=O	inactive: -0.294%
CCc1nonc1NC(=O)c1oc2cc(C)c(C)cc2c1C	inactive: -2.5%
Cc1ccc(-c2cc(NC(=O)c3cccc(C)c3)on2)cc1	inactive: -3.44%
O=S(=O)(NCc1ccc(F)cc1)c1ccc2[nH]c3c(c2c1)CCCC3	inactive: -13.4%
COc1ccc(NC(=O)C2Cc3ccccc3CN2S(=O)(=O)c2ccccc2)cc1OC (stereo unspecified)	inactive: 12%
COc1ccc(C(=O)Oc2ccc(C(c3c(C)[nH][nH]c3=O)c3c(C)[nH][nH]c3=O)cc2)cc1	inactive: 5.91%
CCc1cccc(-n2c(=O)c3cccnc3n2CC(=O)Nc2ccc(OC)c(Cl)c2)c1	inactive: -5.76%
CCc1ccccc1NC(=O)CCCn1c(=O)c2cccn2c2ccccc21	inactive: 0%
COc1cccc(-n2c(SCC(N)=O)nc3c(oc4ccccc43)c2=O)c1	inactive: -1.66%
O=C1CN(C(=O)Cc2ccccc2)C(c2ccc(F)cc2)c2cc(Br)ccc2N1 (stereo unspecified)	inactive: 1.61%
CCOc1ccc(CCNCc2c(C(=O)O)c(C)n(Cc3ccccc3F)c2C)cc1	inactive: 2.47%
Cc1ccc(S(=O)(=O)N2CCc3cc(C(=O)Nc4ccc(Cl)cc4C)ccc32)cc1	inactive: -3.03%
CCCc1nn2c(=O)cc(COC(=O)c3ccc(NC(=O)COc4ccccc4F)cc3)nc2s1	inactive: 0%
CC1Cc2cc(S(=O)(=O)NCc3ccc(Cl)cc3)ccc2N1C(=O)C1CCC1 (stereo unspecified)	inactive: 1.25%
CC(C)c1ccc(N2C(=O)N(Cc3cccc([N+](=O)[O-])c3)c3ccccc3S2(=O)=O)cc1	inactive: -0.029%
CCOc1ccc(NC(=O)[C@@H](c2ccccc2)N2Cc3ccccc3C2=O)cc1	inactive: -13.5%
Cc1noc(-c2ccc(-c3noc(-c4ccc([N+](=O)[O-])c(C)c4)n3)cc2)n1	inactive: -3.48%
CCN(CC)c1ccc(NC(=O)CCc2c(C)nc3ncnn3c2C)c(C)c1	inactive: -0.969%
Cc1cccn2c(=O)c(C(=O)N3CCN(c4ccc(Cl)cc4)CC3)cnc12	inactive: 0.518%
